# From PubChem BioAssay AID588591 (National Center for Advancing Translational Sciences (NCATS), 2011)
# The whole screen tested about 390,000 compounds, of which about 4,700 (1.2%) were called active. The inconclusive results got no clear call from the source; some entries with a clear call stand among them for comparison. Calls follow the shape of the dose curve; as a rule, active = well fitted inhibition curve with a large enough effect; inconclusive = small, poorly fitted or top-dose-only effect, or another doubt; inactive = no such curve, though single readings can be large or run the other way. Potencies of inconclusive entries are doubtful fits and often do not repeat.
# Biological target: DNA polymerase eta (Homo sapiens) (UniProt Q9Y253)
# Experiment: qHTS for Inhibitors of Polymerase Eta
# Conditions: recombinant Pol eta, fluorescent DNA replication assay; series mostly up to 114 µM
# How it was run: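 Pol eta (10 nM) was preincubated with compounds for 15 min at room temperature, after which fluorescent replication substrate (50 nM final) was added to start the reaction. Fluorescence was read kinetically at 0 and 10 min.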
# Potency is read from the fitted curve at half-maximal effect; tags tell the direction and shape of the fitted curve.
# Chain of UniProt Q9Y253 (Q9Y253 whole entry, looked up): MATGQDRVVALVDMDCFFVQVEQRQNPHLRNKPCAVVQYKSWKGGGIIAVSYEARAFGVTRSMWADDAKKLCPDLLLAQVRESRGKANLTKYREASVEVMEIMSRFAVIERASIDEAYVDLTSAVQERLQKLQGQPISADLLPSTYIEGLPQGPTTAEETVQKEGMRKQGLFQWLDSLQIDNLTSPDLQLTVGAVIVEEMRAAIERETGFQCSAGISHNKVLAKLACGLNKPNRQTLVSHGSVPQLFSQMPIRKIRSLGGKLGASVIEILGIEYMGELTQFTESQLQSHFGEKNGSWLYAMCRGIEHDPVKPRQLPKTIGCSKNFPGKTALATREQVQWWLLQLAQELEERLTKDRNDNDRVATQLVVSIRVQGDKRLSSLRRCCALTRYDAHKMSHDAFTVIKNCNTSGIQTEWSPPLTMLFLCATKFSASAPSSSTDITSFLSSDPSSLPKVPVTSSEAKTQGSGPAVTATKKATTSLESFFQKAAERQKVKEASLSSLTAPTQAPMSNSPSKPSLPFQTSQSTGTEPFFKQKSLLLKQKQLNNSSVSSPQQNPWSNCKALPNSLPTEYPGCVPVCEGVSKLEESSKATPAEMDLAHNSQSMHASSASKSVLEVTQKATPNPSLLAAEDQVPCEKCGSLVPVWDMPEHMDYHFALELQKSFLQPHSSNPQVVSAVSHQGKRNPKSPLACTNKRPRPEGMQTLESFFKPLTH
row,SMILES,Potency
1,C=CCC[C@H](Cc1ccc(F)cc1)C(=O)OC[C@H](C)NC(=O)[C@H](CC=C)CC(=O)N(CCO)Cc1ccccc1,"inconclusive: 79.4 µM [inhibitor, partial curve, poor fit]"
2,COc1ccc(CN2C(=O)c3ccccc3C2C(=O)NC2CCC(C)CC2)c(OC)c1 (stereo not drawn),"inconclusive: 79.4 µM [inhibitor, partial curve, poor fit]"
3,COc1ccc(C(=O)OC/C(O)=C(\C#N)c2nc3ccccc3[nH]2)cc1S(=O)(=O)N1CCOCC1,"inconclusive: 25.1 µM [inhibitor, partial curve]"
4,O=C(Nc1ccc(N2CCOCC2)c(S(=O)(=O)Nc2ccc(Cl)cc2)c1)c1cnccn1,"inconclusive: 89.1 µM [inhibitor, partial curve, poor fit]"
5,Cc1ccc(S(=O)(=O)N2C[C@@H](C)[C@]3(C2)[C@H](O)[C@H](OC(=O)NCc2ccco2)C[C@H]2C(=O)N(c4ccccc4)C(=O)[C@H]23)cc1,inactive
6,O=[N+]([O-])c1ccc(C=NNc2ccc(S(=O)(=O)O)cc2)cc1,active: 22.4 µM
7,COc1ccc(CNC(=O)COC(=O)C2=Cc3ccccc3OC2)cc1,"inconclusive: 12.6 µM [inhibitor, partial curve, poor fit]"
8,COc1cccc(OCc2nc3ccccc3n2CCOc2ccccc2C)c1,"inconclusive: 79.4 µM [inhibitor, partial curve, poor fit]"
9,CC(OC(=O)/C=C/c1ccccc1)C(=O)Nc1ccc2c(c1)OCCO2 (stereo not drawn),"inconclusive: 89.1 µM [inhibitor, partial curve, poor fit]"
10,Cc1c(C(=O)N/N=C/c2ccc(-c3ccccc3[N+](=O)[O-])o2)sc(N)c1C#N,active: 14.1 µM
11,O=C(NCc1ccccc1Cl)c1ccc2c(O)c(S(=O)(=O)c3ccccc3)c(=O)[nH]c2c1,inactive
12,CC(C)CC1C(=O)N(Cc2cn(Cc3ccco3)nn2)CCS(=O)(=O)N1Cc1ccc(-c2cccc(N(C)C)c2)cc1 (stereo not drawn),inactive
13,C=CCOc1ccc(/C=C2\SC(=S)N(C(C(=O)O)c3ccccc3)C2=O)cc1 (stereo not drawn),active: 79.4 µM
14,Cc1c(-c2nsc(NC(=O)c3cccs3)n2)nnn1-c1ccc(Br)cc1,"inconclusive: 100 µM [inhibitor, partial curve, poor fit]"
15,NC(=O)c1ccc(NCc2ccco2)c([N+](=O)[O-])c1,"inconclusive: 7.08 µM [inhibitor, partial curve]"
16,COc1cccc(NC(=O)COc2coc(CN3CCc4ccccc4C3)cc2=O)c1,"inconclusive: 35.5 µM [inhibitor, partial curve, poor fit]"
17,CCCCN1CC(C)(C)[C@H](CC(=O)NC)C1=O,inactive
18,C=CCn1c(COc2ccccc2-c2ccccc2)nnc1SCC(=O)NC(=O)NCc1ccco1,inactive
19,CSC1=NSC2=NC(=O)/C(=C\c3coc4ccccc4c3=O)C(=N)N12,active: 12.6 µM
20,COc1cccc(Nc2nc(-c3cccnc3)cs2)c1,inactive
21,Cc1cc(OCC(=O)NCCN2CCOCC2)c2c(C)c(C)c(=O)oc2c1,inactive

row,SMILES,Potency
1,COc1cccc2[nH]c3ccccc3c(=O)c12,"inconclusive: 89.1 µM [inhibitor, partial curve, poor fit]"
2,Cc1cc(C=O)c(C)n1-c1ccc(Cl)c(C(=O)O)c1,active: 3.16 µM
3,Cc1ccc(/C=C/C(=O)Nc2nc3ccccc3[nH]2)cc1,"inconclusive: 22.4 µM [inhibitor, single point]"
4,Cc1cc(=O)[nH]c(N/N=C/c2sccc2C)n1,"inconclusive: 89.1 µM [inhibitor, partial curve, poor fit]"
5,O=C(O)c1cccc2c1C(=O)c1ccc(-c3ccc(F)cc3OCc3ccccc3)cc1S2(=O)=O,active: 79.4 µM
6,COc1ccc2c(c1)cc(C(=O)N[C@H](C(=O)N1CCC(C(=O)O)CC1)C(C)C)n2C,"inconclusive: 79.4 µM [inhibitor, partial curve, poor fit]"
7,CCOC(=O)c1c(NC(=O)CC2Nc3ccccc3NC2=O)sc(C)c1C (stereo not drawn),inactive
8,COc1ccc(NC(=O)Cc2csc(NC(=O)Nc3ccccc3OC)n2)c(OC)c1,"inconclusive: 39.8 µM [inhibitor, partial curve, poor fit]"
9,NC(=O)C[C@@H]1NC(=O)[C@H](CCC(=O)O)NC(=O)c2cc([N+](=O)[O-])cc(I)c2OCC[C@@H](C(N)=O)NC1=O,active: 35.5 µM
10,CCCOc1ccc(-c2nn(-c3ccccc3)cc2C2NC(=O)NC(C)=C2C(=O)OC(C)C)cc1 (stereo not drawn),"inconclusive: 39.8 µM [inhibitor, partial curve, poor fit]"
11,Cc1ccc(-c2nc3ccccc3nc2-c2ccccc2)cc1,inactive
12,CCOC(=O)c1cnc2cc(Cl)c(OC)cc2c1NCC1CCCO1 (stereo not drawn),"inconclusive: 35.5 µM [inhibitor, partial curve, poor fit]"
13,CCC(Sc1nc2n[nH]c(C)c2c(=N)n1-c1cccc(Cl)c1)C(=O)NCCOC (stereo not drawn),"inconclusive: 14.1 µM [inhibitor, partial curve, poor fit]"
14,COc1ccc(OC)c(NC(=O)CSc2ccnc(=O)[nH]2)c1,inactive
15,N#Cc1c(-c2cccs2)nc(SCC(=O)c2ccc(Br)cc2)[nH]c1=O,active: 35.5 µM
16,CC(C)/C=C/C(=O)N1CCC(N2CCC(C(=O)NCC3CCCO3)CC2)CC1 (stereo not drawn),inactive
17,O=C(O)C1CCCCC1C(=O)Nc1ccc(S(=O)(=O)N2CCOCC2)cc1 (stereo not drawn),"inconclusive: 79.4 µM [inhibitor, partial curve, poor fit]"
18,COc1cc(OC)c(Nc2cc(C)nc3ncnn23)cc1Cl,"inconclusive: 3.16 µM [inhibitor, full curve, poor fit]"
19,COC(=O)C1=CC(C(=O)c2cccs2)=NN(c2ccc(OC)cc2)C1C(=O)OC (stereo not drawn),"inconclusive: 50.1 µM [inhibitor, partial curve]"
20,CCN(c1cc(C)cc(C)c1)S(=O)(=O)c1nnc(NC(=O)c2cccs2)s1,active: 89.1 µM
21,CN(CCO)c1c2c(nc3cc(-c4cccc(F)c4)nn13)CCCC2,"inconclusive: 4.47 µM [inhibitor, partial curve, poor fit]"

row,SMILES,Potency
1,COc1ccc(OC)c(NC(=O)c2cc(-c3cc(Cl)ccc3O)n[nH]2)c1,"inconclusive: 22.4 µM [inhibitor, single point]"
2,Cc1ccc(-c2ccc(=O)n(Cc3cc(C)ccc3C)n2)cc1,"inconclusive: 39.8 µM [inhibitor, partial curve, poor fit]"
3,O=C(O)c1ccc(OCc2ccc(C(=O)O)o2)cc1,active: 31.6 µM
4,Cc1ccc(C)c(NC(=O)c2ccc3c(c2)N(Cc2ccc(F)cc2)C(=O)CS3=O)c1 (stereo not drawn),"inconclusive: 100 µM [inhibitor, partial curve, poor fit]"
5,C(=N\C(/N=C/c1ccco1)c1ccco1)/c1ccco1,"inconclusive: 12.6 µM [inhibitor, full curve, poor fit]"
6,Cc1nc(-c2ccccc2)sc1-c1ccc(SCC(=O)NCc2ccc(F)cc2)nn1,"inconclusive: 31.6 µM [inhibitor, partial curve, poor fit]"
7,CC(/C=C1\SC(=S)N(CCC(=O)Nc2ccc(O)cc2)C1=O)=C\c1ccccc1,inactive
8,Cc1nn(-c2ccccc2)c(Cl)c1CN(C(=O)CCl)c1ccc(Cl)cc1,"inconclusive: 28.2 µM [inhibitor, partial curve]"
9,NS(=O)(=O)c1ccc(-c2ccc(/C=C3\C(=O)Nc4cc(Cl)ccc43)o2)cc1,"inconclusive: 17.8 µM [inhibitor, partial curve, poor fit]"
10,CC(C)(C)c1ccc(C(=O)Nc2nonc2-c2nc3ccccc3[nH]2)cc1,"inconclusive: 31.6 µM [inhibitor, partial curve, poor fit]"
11,COc1ccc(C(=O)c2cn(CC(=O)Nc3ccc4c(c3)OCCO4)c3ccc(OC)cc3c2=O)cc1,"inconclusive: 63.1 µM [inhibitor, partial curve, poor fit]"
12,COc1ccc(OCCC(=O)OCC(=O)Nc2cccc(S(=O)(=O)N3CCCCC3)c2)cc1,"inconclusive: 1.26 µM [inhibitor, full curve, poor fit]"
13,O=C(O)COc1ccccc1/C=N/NC(=O)CSc1nc2ccccc2c(=O)n1-c1ccc(Cl)cc1,"inconclusive: 89.1 µM [inhibitor, single point]"
14,O=C(NC(=S)N1CC=CCC1)c1ccccc1,inactive
15,CCCOc1ccc(C(=O)c2nc3c(n2O)CCCC3)cc1,"inconclusive: 20 µM [inhibitor, partial curve, poor fit]"
16,COc1ccc2c(c1)c(=O)oc1c(C)c(OCc3ccc(C(=O)O)cc3)ccc12,"inconclusive: 8.91 µM [inhibitor, full curve, poor fit]"
17,COc1cccc(C(=O)NCCSc2c(-c3ccc(F)cc3)[nH]c3ccccc23)c1OC,inactive
18,O=C1CCC2c3ccc4ccccc4c3CCN12 (stereo not drawn),"inconclusive: 79.4 µM [inhibitor, partial curve, poor fit]"
19,COc1cc(/C=N/NC(=O)c2ccc(CSc3nc4ccccc4[nH]3)cc2)ccc1O,"inconclusive: 15.8 µM [inhibitor, full curve, poor fit]"
20,N=c1c(C(=O)NCc2ccccc2)cc2c(=O)n3ccccc3nc2n1CCCN1CCOCC1,"inconclusive: 28.2 µM [inhibitor, partial curve, poor fit]"
21,O=C(CSc1ccsc1[N+](=O)[O-])N1CCN(c2ccccn2)CC1,active: 50.1 µM
